# The whole screen tested about 340,000 compounds, of which about 530 (0.16%) were called active. The inconclusive results got no clear call from the source; some entries with a clear call stand among them for comparison. No stated cut-off is given here; in the data, active means activity change below about -80%; inconclusive means between about -30% and that limit; inactive means weaker than that.
# Test: Small Molecules that selectively kill Giardia lamblia: qHTS;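 further: parasites exposed to compound for two days anaerobically before the ATP read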
# Conditions: Giardia lamblia trophozoite viability; at 7.66 µM; hits give low values
# Outline: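 ATP-content bioluminescence gauges trophozoite survival. Cells (100/well) receive compound and incubate anaerobically for 48 hrs at 37 deg C; detection reagent follows for 15-30 min at room temperature.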
# On the % scale 0 is the no-effect control and ±100 the full control effect.
row,Compound,activity change
1,O=C(CN1C(=O)NC(Cc2ccccc2)(Cc2ccccc2)C1=O)NCC1CCCCC1,inconclusive: -34.6% [inhibitor]
2,O=C(NNC1=NS(=O)(=O)c2ccccc21)c1ccc(Cl)cc1,inconclusive: -42.3% [inhibitor]
3,CCOC(=O)c1sc(/N=C/c2c(O)ccc3ccccc23)cc1C,inactive: 4.12%
4,Cc1cccc(CSCCNC(=O)c2ccc(CN3CCOCC3)cc2)c1,inconclusive: -36.3% [inhibitor]
5,Cc1noc(C)c1S(=O)(=O)N1CCC(C(=O)Nc2ccc(Br)cc2)CC1,inconclusive: -34.7% [inhibitor]
6,Cc1nn(CC(=O)NCCCN2CCCCC2C)c(=O)c2cccn12 (stereo unspecified),inconclusive: -31.4% [inhibitor]
7,O=C(Nc1sc2c(c1C(=O)O)CCCC2)c1ccc(F)cc1,inconclusive: -35.5% [inhibitor]
8,COc1ccccc1-n1c(=O)[nH]c2c(C(N)=O)nc(-c3cccnc3)nc21,inconclusive: -31.6% [inhibitor]
9,CCOc1cccc(C(=O)Nc2ccc3ccccc3c2)c1,inconclusive: -37.5% [inhibitor]
10,Cc1ccc(N(C(=O)c2ccccc2Cl)C2=NC(C)CS2)c(C)c1 (stereo unspecified),inconclusive: -36.6% [inhibitor]
11,COc1cccc(C(=O)Nc2ccc(-c3nc4ccccc4o3)c(O)c2)c1,inactive: -0.581%
12,O=C(NCc1cccnc1)c1ccc(N2CCOCC2)c([N+](=O)[O-])c1,inconclusive: -36.9% [inhibitor]
13,O=C(CCN1C(=O)c2ccccc2C1=O)Oc1ccc2ccccc2c1,inconclusive: -31.7% [inhibitor]
14,CCn1cc(S(=O)(=O)CC(=O)NC2CCCCC2)c2ccccc21,inactive: -6.77%
15,CCn1c(CCNC(=O)c2ccc(F)cc2)nc2ccccc21,inconclusive: -46.5% [inhibitor]
16,Cc1ccc(C(=O)Nc2nc(=O)n(C)s2)cc1,inconclusive: -32.2% [inhibitor]
17,O=C(CCC1CCCCC1)Nc1cccc(C(=O)Nc2ccc(C(=O)O)cc2)c1,inconclusive: -38.4% [inhibitor]
18,CC(C)[C@H](NC(=O)c1ccco1)C(=O)NCc1ccccc1,inconclusive: -33.6% [inhibitor]
19,CCc1ccc(NC(=O)Cn2c(=O)oc3cc(S(=O)(=O)N4CCOCC4)ccc32)cc1,inconclusive: -32.8% [inhibitor]
20,CN(Cc1ccccc1)C(=O)CN1CCN(C(c2ccccc2)c2ccccc2)CC1,inactive: 1.1%
21,O=C(NCc1ccccc1)c1cnc(Cl)c(Cl)c1,inconclusive: -33.4% [inhibitor]
22,CCOC(=O)c1c(C)[nH]c(C(=O)COC(=O)CCNS(=O)(=O)c2ccc(NC(C)=O)cc2)c1C,inconclusive: -39.4% [inhibitor]
23,CCCCCc1cc(=O)oc2c(C(CCN3CCCC(C)C3)c3ccc(N(C)C)cc3)c(OC)cc(OC)c12 (stereo unspecified),inconclusive: -35.5% [inhibitor]
24,CCC(C)NC(=S)N(Cc1cc2cc(C)ccc2n2nnnc12)CC(C)(C)NC(C)C (stereo unspecified),inconclusive: -31.4% [inhibitor]
25,COc1ccc(/C=C/C=C2\NC(=S)NC2=O)cc1,inconclusive: -35.1% [inhibitor]
26,COc1ccc(C)cc1-n1nnnc1SCc1cc(=O)n2cc(C)ccc2n1,inactive: 16.5%

row,Compound,activity change
1,O=C(COC(=O)c1n[nH]c2ccccc12)Nc1ccc([N+](=O)[O-])cc1,inconclusive: -33.4% [inhibitor]
2,O=C(NC1CCCCC1)C1CCCN(S(=O)(=O)c2ccc(Br)s2)C1 (stereo unspecified),inconclusive: -31.1% [inhibitor]
3,O=C(Cn1c2ccccc2c(=O)c2cc([N+](=O)[O-])ccc21)Nc1ccccc1Cl,inconclusive: -32.8% [inhibitor]
4,O=[N+]([O-])c1cc(/C=N/Nc2nc(N3CCOCC3)nc(N3CCOCC3)n2)ccc1Cl,inconclusive: -32.6% [inhibitor]
5,Cc1ccc2cccc(Oc3ncnc4scc(-c5ccccc5)c34)c2n1,inconclusive: -31.8% [inhibitor]
6,CCCCOc1ccc2c(c1)/C(=C(\C(Cl)=C(Cl)Cl)[N+](=O)[O-])N2,inconclusive: -33.3% [inhibitor]
7,Cc1onc(-c2ccccc2)c1C(=O)N/N=C/c1ccc([N+](=O)[O-])c(O)c1,inconclusive: -66.1% [inhibitor]
8,COc1ccc(CNC(=S)Nc2ccccc2Cl)cc1,inactive: -11.8%
9,Cc1ccc(S(=O)(=O)N2CCCCC2)cc1NC(=O)Cc1c[nH]c2ccccc12,inconclusive: -39.9% [inhibitor]
10,Cc1cc(NC(=O)c2ccc(F)cc2F)n(-c2nc3ccccc3[nH]2)n1,inactive: -0.89%
11,CCOC(=O)c1cnc(-n2cc(C)cn2)nc1Nc1ccccc1OC,inactive: 4.12%
12,Cc1[nH]n(S(=O)(=O)Cc2ccccc2)c(=O)c1N=Nc1ccccc1Cl,active: -88.8%
13,COc1ccc(NC(=O)CCNS(=O)(=O)c2ccc3c(c2)c(=O)n(C)c(=O)n3C)cc1OC,inconclusive: -31.7% [inhibitor]
14,CCCCOC(=O)c1ccc(NC(=O)CN2C(=O)NC3(CCCCCC3)C2=O)cc1,inactive: 26.4%
15,Cc1nc2c(N=Nc3ccccc3F)c(N)nn2c(N)c1C#N,inconclusive: -47.3% [inhibitor]
16,COc1ccc(C(=O)N/N=C/c2ccc(OC(=O)c3ccccc3)cc2)cc1,inactive: -2.27%
17,NC(=O)c1ccccc1N/C=C/C(=O)c1ccc(Cl)cc1,inconclusive: -67.5% [inhibitor]
18,CC(Cc1ccccc1)Nc1ncnc2c1ncn2C1OC(CO)C(O)C1O (stereo unspecified),inconclusive: -30.5% [inhibitor]
19,COc1ccccc1NC(=O)CN1CCN(CC(=O)Nc2ccc(Cl)c(C(F)(F)F)c2)CC1,inactive: 5.27%
20,Cc1c(C)c2ccc(OCC(=O)Nc3ccccn3)cc2oc1=O,inconclusive: -44.1% [inhibitor]
21,O=C(Nc1cccc(S(=O)(=O)N2CCCCC2)c1)c1ccco1,inactive: -9.4%
22,CC(OC(=O)c1cc(=O)[nH]c2ccccc12)C(=O)NC1CCCCC1C (stereo unspecified),inconclusive: -30.2% [inhibitor]
23,COCC1CCN(C(=O)c2cc(COc3ccc(C)c(C)c3)on2)C1 (stereo unspecified),inactive: 14.9%
24,CCCc1nnc(NC(=O)CCC(=O)N2CCN(Cc3cc(Cl)ccc3OC)CC2)s1,inconclusive: -39.4% [inhibitor]
25,CCOc1ccc(CN2CCN(C(=O)c3ccccc3)CC2)cc1,inactive: -7.83%
26,CC(OC(=O)c1ccc(Cl)nc1)C(=O)NC1CCCC1 (stereo unspecified),inconclusive: -55.9% [inhibitor]

row,Compound,activity change
1,CCN(CC)CC(=O)Nc1ccc(-c2nc3cc(NC(=O)CN(CC)CC)ccc3o2)cc1,inconclusive: -59.2% [inhibitor]
2,Nc1nonc1OCCN1CCN(c2ccc([N+](=O)[O-])c3cccnc23)CC1,inconclusive: -71.4% [inhibitor]
3,Cc1nn2c3cc(N4CCOCC4)ccc3nc2c2ccccc12,inconclusive: -68.7% [inhibitor]
4,CC1(C)Cc2c(sc3ncn4c(=S)[nH]nc4c23)CO1,inconclusive: -31.7% [inhibitor]
5,O=C(COC(=O)/C=C/c1ccc(Br)o1)NCCCN1CCCC1=O,inactive: -19%
6,O=C(Nc1ccc(Cc2ccncc2)cc1)c1ccc([N+](=O)[O-])o1,active: -88.3%
7,COCCn1c(C)cc(C(=O)COC(=O)c2ccccc2Br)c1C,inconclusive: -70.1% [inhibitor]
8,CCN(CC)S(=O)(=O)c1ccc(N2CCOCC2)c(NC(=O)CC2OC(=O)c3ccccc32)c1 (stereo unspecified),inactive: 7.23%
9,CCOC(=O)C1(CCCc2ccccc2)CCN(C2CCN(C(C)=O)CC2)CC1,inactive: 6.09%
10,COc1cc(CCCN2CCNC[C@@H]2Cc2ccccc2)cc(OC)c1OC,inconclusive: -30.4% [inhibitor]
11,Cc1cccc(N(C(=O)c2snc(C(N)=O)c2N)C(C(=O)NC2CCCC2)c2ccncc2)c1 (stereo unspecified),inactive: -12.8%
12,CC(C)n1cnc2cc(NC(=O)c3ccco3)ccc21,inconclusive: -39.8% [inhibitor]
13,CCSc1ncc(Cl)c(C(=O)Nc2ccccc2Cl)n1,inconclusive: -31% [inhibitor]
14,CCCn1nc2cc(C(=O)NCC34CC5CC(CC(C5)C3)C4)ccc2c1OCC,inconclusive: -38.3% [inhibitor]
15,Cc1nn(C)cc1/C=C/C(=O)c1cccs1,inconclusive: -34.1% [inhibitor]
16,O=C(NCc1ccccc1CN1CCCC1)c1cccc(S(=O)(=O)N2CCCC2)c1,inconclusive: -51.9% [inhibitor]
17,CCn1c(CNC(=O)c2ccco2)nnc1SCC(=O)c1ccccc1,inconclusive: -32% [inhibitor]
18,Cc1ccc(CC(=O)Nc2ccc(S(=O)(=O)Nc3nccc(C)n3)cc2)cc1,inconclusive: -30.9% [inhibitor]
19,CCO/C=C/C(O)(CNC(=O)c1ccc(C(C)(C)C)cc1)C(F)(F)F (stereo unspecified),inactive: 6.3%
20,Cc1ccccc1/C=C/c1nc2ccccc2c(=O)[nH]1,inconclusive: -36.8% [inhibitor]
21,COc1ccc(S(=O)(=O)N2CCCCC2)cc1NC(=O)c1cccc(S(=O)(=O)N2CC(C)OC(C)C2)c1 (stereo unspecified),inconclusive: -33.8% [inhibitor]
22,CC(=O)/C(=N\Nc1ccccc1)Oc1ccc(Br)cc1,inconclusive: -31.6% [inhibitor]
23,Cc1ccc(N=Cc2c(C)[nH]n(-c3nc4ccccc4[nH]3)c2=O)cc1,inconclusive: -34.8% [inhibitor]
24,O=C(CSc1nnc(-c2ccccc2F)o1)NC(=O)Cc1ccccc1,inactive: 8.4%
